From publication PMC4336329 (PLoS ONE, 2015)
In all, about 310,000 compounds went through this assay and about 2,200 (0.71%) showed an effect of 50% or more. Effects have a minus sign here. This is one part of the list.

These compounds were tested against human ether-à-go-go-related gene (hERG) potassium channel (human, UniProt Q12809) (assay: primary screen, population patch clamp on CHO cells stably expressing hERG).
human ether-à-go-go-related gene (hERG) potassium channel, sequence (Q12809 whole entry, looked up): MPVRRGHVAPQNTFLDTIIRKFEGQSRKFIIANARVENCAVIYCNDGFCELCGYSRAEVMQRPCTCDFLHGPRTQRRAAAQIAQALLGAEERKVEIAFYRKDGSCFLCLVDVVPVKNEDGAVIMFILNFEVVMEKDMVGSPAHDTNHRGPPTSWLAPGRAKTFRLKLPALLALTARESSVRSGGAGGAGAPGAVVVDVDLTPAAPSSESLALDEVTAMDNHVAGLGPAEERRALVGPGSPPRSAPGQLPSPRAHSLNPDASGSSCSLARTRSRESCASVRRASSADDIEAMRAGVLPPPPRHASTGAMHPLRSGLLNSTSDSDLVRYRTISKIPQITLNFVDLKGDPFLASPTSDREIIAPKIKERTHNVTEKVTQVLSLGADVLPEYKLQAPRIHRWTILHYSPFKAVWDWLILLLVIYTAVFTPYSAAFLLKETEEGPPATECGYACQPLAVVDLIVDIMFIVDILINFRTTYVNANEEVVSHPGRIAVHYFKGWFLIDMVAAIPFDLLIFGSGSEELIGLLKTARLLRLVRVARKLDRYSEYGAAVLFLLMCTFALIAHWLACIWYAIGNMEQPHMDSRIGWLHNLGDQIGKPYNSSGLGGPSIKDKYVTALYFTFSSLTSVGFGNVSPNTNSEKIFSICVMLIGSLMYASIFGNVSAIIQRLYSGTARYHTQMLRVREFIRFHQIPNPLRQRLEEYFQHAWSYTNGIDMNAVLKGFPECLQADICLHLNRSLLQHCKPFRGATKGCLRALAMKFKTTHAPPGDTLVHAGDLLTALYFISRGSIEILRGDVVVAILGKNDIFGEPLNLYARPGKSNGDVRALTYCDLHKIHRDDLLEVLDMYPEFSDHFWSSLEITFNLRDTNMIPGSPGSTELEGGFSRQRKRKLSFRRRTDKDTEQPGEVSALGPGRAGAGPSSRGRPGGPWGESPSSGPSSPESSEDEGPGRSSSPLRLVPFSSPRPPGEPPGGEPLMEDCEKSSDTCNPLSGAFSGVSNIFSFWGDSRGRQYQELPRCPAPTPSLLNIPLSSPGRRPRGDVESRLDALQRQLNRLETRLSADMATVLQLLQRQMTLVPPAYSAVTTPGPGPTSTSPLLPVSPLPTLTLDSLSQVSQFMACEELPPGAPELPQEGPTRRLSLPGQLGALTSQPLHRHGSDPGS

Row | Compound | hERG current change (%, negative = inhibition) at 1uM [%]
1 | Clc1ccc(OCCn2cnc(Cl)c2Cl)cc1 | 4.77
2 | S=C(NCCc1ccccc1)N1CCCC1 | 13.1
3 | CCCCNC(=S)Nc1cccc(C(C)=O)c1 | 3.07
4 | CCN(CC)S(=O)(=O)c1ccc(S(=O)(=O)N2CCCC2C(=O)O)cc1 (stereo not drawn) | 2.77
5 | O=S(=O)(NCc1ccccc1Cl)c1cnc[nH]1 | 17.3
6 | c1ccc2c(c1)ncn2Cc1nnc2sc(-c3ccncc3)nn12 | -2.74
7 | O=C1OCCC1Sc1nnnn1-c1ccccc1 (stereo not drawn) | -5.01
8 | S=C(NC1CCCCC1)N1CCOCC1 | 13
9 | O=C(Nc1nccs1)c1cc(S(=O)(=O)N2CCOCC2)ccc1Cl | 4.47
10 | COc1cccc(NC(=O)Nn2cnnc2)c1 | 19.4
11 | Cn1c(=O)[nH]c(=O)c2c1nc(N1CCOCC1)n2CCN1CCOCC1 | 26.3
12 | CC(C)[C@H](NC(=O)NCCC1=CCCCC1)C(=O)O | 7.62
13 | CCC(CC)NC(=O)COC(=O)c1ccc(OCc2ccc(C(C)=O)cc2OC)c(OC)c1 | 10.9
14 | CCn1nc(C)cc1C(=O)n1nc(C)c(Sc2ncccn2)c1C | 6.34
15 | O/N=C/c1cccc[n+]1CCCCCC[n+]1ccccc1/C=N/O.[Br-] | 18
16 | Cc1ccc(N2C(=O)C3ON(c4ccccc4)C(c4ccncc4)C3C2=O)cc1 (stereo not drawn) | -4.9
17 | COc1cc2c(cc1NC(=O)/C=C/c1ccc([N+](=O)[O-])cc1)oc1ccccc12 | 13.6
18 | Cc1ccccc1OCCNc1cc(N2CCN(CCO)CC2)ccc1[N+](=O)[O-] | 2.6
19 | NNC(=O)c1cccnc1Oc1ccccc1 | 4.74

Row | Compound | hERG current change (%, negative = inhibition) at 1uM [%]
20 | COC(=O)CNC(c1ccccc1)c1cc(C)ccc1NS(=O)(=O)c1ccc(C)cc1 (stereo not drawn) | 2.31
21 | O=C(NN1C(=O)C2C3C=CC(C4CC34)C2C1=O)c1ccc(Cl)cc1Cl (stereo not drawn) | 11.5
22 | O=C(CSc1ccccn1)Nc1ccc2c(c1)oc1ccccc12 | 13.8
23 | O=P(c1ccccc1)(c1ccccc1)c1cc(S(=O)(=O)[O-])ccc1O.[Na+] | 13.5
24 | Cc1noc(C)c1COc1ccc(C(=O)NNC(=O)c2ccccc2O)cc1 | -5.55
25 | COc1ccc(-c2nnc(NC(=O)c3cc(C)on3)s2)cc1 | -4.58
26 | COc1cc(/C=C2/C(=O)N(c3ccc(Br)cc3)N=C2C)cc([N+](=O)[O-])c1O | 18.1
27 | O=C(N/N=C1\CCSc2ccc(F)cc21)c1cccnc1 | 9.55
28 | COc1ccccc1CNC(=O)CCCn1c(=O)c2ccccc2n(CC(=O)NC2CCCC2)c1=O | 10.1
29 | CCOC(=O)c1ccc(-c2ccc(/C=N/NC(=O)CN(c3ccccc3Cl)S(C)(=O)=O)o2)cc1 | 11.2
30 | CCN(c1cccc(C)c1)S(=O)(=O)c1ccc2c(c1)NC(=O)CS2 | 8.05
31 | COc1c(C)cc(S(=O)(=O)NC2CC(C)(C)NC(C)(C)C2)c(C)c1C | 5.89
32 | CC1(c2ccc(OC(F)F)cc2)NC(=O)N(CC(=O)N2CCN(C(=O)c3ccco3)CC2)C1=O (stereo not drawn) | 9.44
33 | Cc1ccc(C(=O)Oc2cc(C)[nH]c(=O)c2[N+](=O)[O-])cc1 | 11.7
34 | COc1ccccc1CCNC1CCCCCC1 | 13.2
35 | CN(C)/C=C/C(=O)c1ccc(S(=O)(=O)c2ccccc2)cc1 | 9.95
36 | O=C(NCc1ccccc1)c1ccccc1CO | 8.01
37 | Cc1ccc(CN2CC(C(=O)NCC(=O)Nc3c(C)cccc3C)CC2=O)cc1 (stereo not drawn) | 7.27
38 | OCC[C@@H]1C[C@H](O)[C@@H](O)[C@@]2(Cc3ccccc3O2)O1 | 17.5

Row | Compound | hERG current change (%, negative = inhibition) at 1uM [%]
39 | Cc1cc([N+](=O)[O-])nn1CC(=O)NCc1nc2ccccc2[nH]1 | 5.47
40 | COc1ccc(N(C(=O)c2snc(C(N)=O)c2N)C(C(=O)NCC2CCCO2)c2ccc3ncccc3c2)cc1OC (stereo not drawn) | 12.5
41 | CC1CCCCC1NC(=S)NC(=O)c1sc2ccccc2c1Cl (stereo not drawn) | 6.28
42 | COc1ccccc1N1CCN(CC(=O)Nc2cccc(F)c2)CC1 | -2.25
43 | O=C(NCc1ccccc1Cl)c1cc(=O)[nH]c2ccccc12 | 10.3
44 | O=C(Nc1cccc(Cl)c1)c1ccc(=O)[nH]n1 | 7.41
45 | CC1CN(c2ccc(NC(=S)NNCCC#N)cc2)CC(C)O1 (stereo not drawn) | 12.2
46 | Cc1ccc(C(=O)OCC(=O)NC2CCCC(C)C2C)cc1S(=O)(=O)N1CCCCC1 (stereo not drawn) | 11.4
47 | COc1ccccc1CNC(=O)Cc1ccc(Br)cc1 | 6.15
48 | Cn1c(SCc2ccccc2Cl)nc2c1c(=O)[nH]c(=O)n2C | 13.6
49 | C=CCSc1nnc(NC(=O)C2CC(=O)N(Cc3ccc(C)cc3)C2)s1 (stereo not drawn) | -2.81
50 | CSC1=NC(=O)/C(=C/c2ccc(SC)cc2)S1 | 11.3
51 | CCOC(=O)c1ccccc1NC(=O)c1ccccc1N(C)S(C)(=O)=O | -4.08
52 | O=C(CP(=O)(c1ccccc1)c1ccccc1)Nc1cccc(CP(=O)(c2ccccc2)c2ccccc2)c1 | 14.1
53 | COC(=O)c1ccc(COc2cccnc2[N+](=O)[O-])cc1 | 7.21
54 | CCOC(=O)/C(C#N)=C/Nc1ccsc1C(=O)OC | 8.98
55 | S=C(Nc1ccc2c(c1)OCO2)NC1CCN(Cc2ccccc2)CC1 | 12.4
56 | CCOC(=O)C1CN(S(=O)(=O)c2ccc(OC)cc2)c2cc(Cl)ccc2O1 (stereo not drawn) | 8.42
57 | CC1CCN(C(=O)c2ccc3c(=O)n4c(nc3c2)CCCCC4)CC1 | 9.52
